{"source": "PubChem BioAssay AID624296", "about": "(National Center for Advancing Translational Sciences (NCATS), 2012)", "note": "Hit rate of the full screen: of about 350,000 compounds, about 9,900 (2.8%) were called active. This list was built around the results that the source calls inconclusive (neither active nor inactive); the mix of calls is not that of the screen. Calls come from the whole dose curve; as a rule, active = well fitted activation curve with a large enough effect; inconclusive = small, poorly fitted or top-dose-only effect; inactive = no such curve, though single readings can be large or run the other way. Potencies of inconclusive entries are left out as doubtful fits. Potency is the fitted concentration of half-maximal effect; tags give direction and shape of the fitted curve.", "data": [{"assay": "A quantitative high throughput screen for small molecules that induce DNA re-replication in MCF 10a normal breast cells; note: nearly all actives have a fitted effect of over 50% in size; for activity, positive = re-replication: % of control where 0% means no effect.", "conditions": "MCF 10A DNA re-replication, Hoechst nuclear intensity, 48 h; activity, positive = re-replication: at 46.1 µM (top of the series)", "values": [{"smiles": "COc1ccc(NC(=S)NC(=O)Cc2ccccc2)c(OC)c1", "activity, positive = re-replication": "inactive: 6.37%"}, {"smiles": "CC(=O)N1Cc2ccccc2CC1C(=O)O", "note": "(stereo not given)", "Potency": "inconclusive [activator, single point]"}, {"smiles": "O=C(COc1ccc2c(c1)oc(=O)c1ccccc12)NC(Cc1ccc(Cl)cc1)C(=O)O", "note": "(stereo not given)", "activity, positive = re-replication": "inactive: -7.38%"}, {"smiles": "CC(C)Oc1ccc(Cc2cnc(=S)[nH]c2N)cc1", "activity, positive = re-replication": "inactive: 9.94%"}, {"smiles": "Cc1cc(C(=O)Nc2sc3c(c2C#N)CCC(C(C)(C)C)C3)no1", "note": "(stereo not given)", "Potency": "inconclusive [activator, single point]"}, {"smiles": "COc1ccc(OC)c(C2CC(=O)c3c([nH]c(C(=O)OC(C)C)c3C)C2)c1", "note": "(stereo not given)", "Potency": "inconclusive [activator, full curve, poor fit]"}, {"smiles": "Cc1ccc(NC(=O)C2CC2)cc1S(=O)(=O)N1CCOCC1", "Potency": "inconclusive [activator, partial curve]"}, {"smiles": "CCn1c(COc2ccc3c(c2)OCO3)nnc1SCC(=O)c1ccccc1", "Potency": "inconclusive [activator, single point]"}, {"smiles": "CCOC(=O)c1c(-c2cccs2)csc1NC(=O)CN1CC(C)OC(C)C1", "note": "(stereo not given)", "Potency": "active: 20.6 µM"}, {"smiles": "COc1ccc(OC)c2c1sc(=NC(=O)C(C)C)n2C", "activity, positive = re-replication": "inactive: 11.4%"}, {"smiles": "O=C1CNC(=S)N1c1nc2ccccc2s1", "activity, positive = re-replication": "inactive: -5.04%"}, {"smiles": "O=C1CSC(=S)N1c1ccc(Cl)c(Cl)c1", "Potency": "inconclusive [activator, single point]"}, {"smiles": "COc1ccccc1-c1cc(C(=O)N2CCN(c3ccccc3OC)CC2)no1", "Potency": "inconclusive [activator, single point]"}, {"smiles": "CCCCNS(=O)(=O)c1ccc(NC(=O)c2c(-c3ccccc3Cl)noc2C)cc1", "Potency": "inconclusive [activator, single point]"}, {"smiles": "CCCC(C)NC(=O)c1cccc(Oc2ccccc2)c1", "note": "(stereo not given)", "activity, positive = re-replication": "inactive: 22.6%"}, {"smiles": "Cc1ccc(/C=N/NC(=O)c2ccc(-c3ccccc3)cc2)o1", "Potency": "inconclusive [activator, single point]"}, {"smiles": "CNc1ncc(C(=O)c2ccc(Cl)c(Cl)c2)s1", "Potency": "inconclusive [activator, partial curve, poor fit]"}, {"smiles": "CC(OC(=O)c1ccccc1Nc1ccc(SC(F)F)cc1)C(N)=O", "note": "(stereo not given)", "Potency": "inconclusive [activator, single point]"}, {"smiles": "COCCn1c(=S)[nH]c2ncccc2c1=O", "activity, positive = re-replication": "inactive: 4.64%"}, {"smiles": "O=C(/C=C/c1ccc(OC(F)F)cc1)Nc1cccc(S(=O)(=O)N2CCOCC2)c1", "Potency": "inconclusive [activator, partial curve, poor fit]"}, {"smiles": "CCOC(=O)[C@@H]1[C@H]2COc3cc(OC)ccc3[C@@H]2N2C(=O)N(c3cccc(F)c3)C(=O)[C@@]12C", "Potency": "inconclusive [activator, single point]"}, {"smiles": "COC(=O)c1ccc(CN2CCC(Oc3cccc(C(=O)N4CCCC4)c3)CC2)cc1", "Potency": "inconclusive [activator, partial curve, poor fit]"}, {"smiles": "Cc1sc2ncn(CC(=O)Nc3cccc(S(N)(=O)=O)c3)c(=O)c2c1-c1ccccc1", "Potency": "inconclusive [activator, single point]"}, {"smiles": "Cc1ccc(NC2=C(Cl)C(=O)OC2OC(C)C)cc1", "note": "(stereo not given)", "Potency": "inconclusive [activator, full curve, poor fit]"}, {"smiles": "Cc1ccc(NC(=S)Nc2c(C)n(C)n(-c3ccccc3)c2=O)cc1", "activity, positive = re-replication": "inactive: 16%"}, {"smiles": "CCCn1c(SCC(=O)N2c3ccc(F)cc3CCC2C)nnc1-c1ccccn1", "note": "(stereo not given)", "activity, positive = re-replication": "inactive: 1.7%"}, {"smiles": "CCOC(=O)c1c(-c2ccccc2)csc1NC(=S)NC", "Potency": "active: 18.4 µM"}, {"smiles": "CC1=CN2C(=N)/C(=C\\c3cn(CCCOc4ccccc4)c4ccccc34)C(=O)N=C2S1", "Potency": "active: 3.66 µM"}, {"smiles": "CC1=C(C(=O)OCCNC(=O)c2ccccc2O)C(c2ccccc2[N+](=O)[O-])C(C(=O)OCC2CCCO2)=C(C)N1", "note": "(stereo not given)", "Potency": "inconclusive [activator, single point]"}, {"smiles": "O=C(NC(=S)Nc1nc(-c2ccccc2)cs1)c1cccs1", "Potency": "inconclusive [activator, single point]"}, {"smiles": "COc1ccccc1NC(=O)CN1CCN(CC(=O)Nc2cc(C)ccc2OC)CC1", "activity, positive = re-replication": "inactive: -8.54%"}, {"smiles": "COC(=O)c1cc(COc2ccc3oc(C)c(C(=O)OC)c3c2)c(C)o1", "Potency": "active: 14.6 µM"}, {"smiles": "COc1ccc2cc(C(=O)OC(C)C)sc(=O)c2c1OC", "Potency": "inconclusive [activator, partial curve, poor fit]"}, {"smiles": "CC(=O)Nc1ccc(Oc2nc(-c3ccccn3)nc3ccccc23)cc1", "activity, positive = re-replication": "inactive: 6.62%"}, {"smiles": "CN(C)CCNC(=O)c1cc2c(=O)n(C)c3ccccc3c2n1C", "activity, positive = re-replication": "inactive: 24%"}, {"smiles": "CCOc1cc(/C=N/Nc2nc3ccccc3[nH]2)cc(Br)c1OCC(=O)N(C)C", "Potency": "inconclusive [activator, single point]"}, {"smiles": "CC(C)Cc1ccc(C(C)C(=O)OCC(=O)c2c[nH]c3ccccc23)cc1", "note": "(stereo not given)", "Potency": "inconclusive [activator, single point]"}, {"smiles": "COc1ccc(Cl)cc1N/C(N)=N/c1nc(C)cc(C)n1", "activity, positive = re-replication": "inactive: 9.97%"}, {"smiles": "Cc1ccc2c(c1)C1CN(C)CCC1N2Sc1ccccc1[N+](=O)[O-]", "note": "(stereo not given)", "Potency": "inconclusive [activator, single point]"}, {"smiles": "COc1ccc(NC(=O)CN(c2cc(C)cc(C)c2)S(=O)(=O)c2c(C)noc2C)cc1OC", "Potency": "inconclusive [activator, partial curve, poor fit]"}, {"smiles": "Cc1ccc(OCCNC(=O)CCC(=O)N2CCOCC2)cc1", "Potency": "inconclusive [activator, single point]"}, {"smiles": "Oc1ccc(CNc2ccccc2F)c2cccnc12", "Potency": "inconclusive [activator, single point]"}, {"smiles": "Cc1ccc2nc(SCc3nc4c(cnn4-c4ccccc4)c(=O)[nH]3)[nH]c2c1", "Potency": "inconclusive [activator, partial curve]"}, {"smiles": "CCOC(=O)C1=C(c2ccccc2)NC(N)=NC1c1ccc(OCc2ccc(Cl)cc2)c(OC)c1", "note": "(stereo not given)", "Potency": "active: 18.4 µM"}, {"smiles": "O=[N+]([O-])c1ccc(OC/C=C2\\Oc3ccc([N+](=O)[O-])cc3C2N2CCOCC2)cc1", "note": "(stereo not given)", "Potency": "inconclusive [activator, partial curve, poor fit]"}]}]}
